Data taken from publication PMC6919601, “Identification of Plasmodium dipeptidyl aminopeptidase allosteric inhibitors by high throughput screening” (PLoS ONE, 2019).
Among all 110,000 compounds or so, about 230 (0.21%) showed an effect of 50% or more. This is one part of the list.

molecular target: DPAP1 (Plasmodium falciparum, UniProt Q8IIJ9); test: primary screen, percent inhibition; read by cleavage of a fluorogenic dipeptide substrate; higher = more effect of the substance; set-up: species or system P. falciparum D10 trophozoite lysates; single well
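Also: 30 min substrate incubation versus DMSO and 10 µM JCP410 controls.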

Sequence of DPAP1 (Q8IIJ9 whole entry, looked up): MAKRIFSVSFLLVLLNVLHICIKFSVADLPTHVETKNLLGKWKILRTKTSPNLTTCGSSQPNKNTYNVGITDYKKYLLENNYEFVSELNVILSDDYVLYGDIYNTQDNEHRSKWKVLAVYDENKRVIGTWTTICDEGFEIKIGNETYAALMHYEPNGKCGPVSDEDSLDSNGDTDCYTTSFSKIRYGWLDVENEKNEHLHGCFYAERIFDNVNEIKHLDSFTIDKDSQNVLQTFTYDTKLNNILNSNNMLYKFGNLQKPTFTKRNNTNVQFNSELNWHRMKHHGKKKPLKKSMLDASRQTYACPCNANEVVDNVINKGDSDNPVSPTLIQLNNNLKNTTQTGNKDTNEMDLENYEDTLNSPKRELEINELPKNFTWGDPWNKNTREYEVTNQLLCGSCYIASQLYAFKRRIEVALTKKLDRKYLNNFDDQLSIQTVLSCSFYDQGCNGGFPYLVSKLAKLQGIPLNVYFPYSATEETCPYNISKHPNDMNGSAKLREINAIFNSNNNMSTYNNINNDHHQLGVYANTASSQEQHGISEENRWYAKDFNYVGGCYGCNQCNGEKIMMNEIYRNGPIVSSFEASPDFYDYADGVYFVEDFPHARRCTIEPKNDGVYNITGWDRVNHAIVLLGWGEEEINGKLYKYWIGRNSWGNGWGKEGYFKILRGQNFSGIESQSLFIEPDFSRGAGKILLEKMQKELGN

Structure (SMILES)	% Inhibition @ 10 uM
O=C1CC(Nc2ccc(F)cc2)C(=O)N1c1ccc(F)cc1 (stereo not drawn)	-4.68%
CC1CCN(c2c(NCc3ccc(C(=O)NC4CCCc5ccccc54)cc3)c(=O)c2=O)CC1 (stereo not drawn)	-2.25%
Cc1cccc(Cn2c(NCc3ccc4c(c3)OCO4)nc3c2c(=O)n(C)c(=O)n3C)c1	0.0367%
CN1CCC(N(C)Cc2ccccc2Br)CC1	-0.127%
O=C(c1ccc(Cl)cc1Cl)N1CCN(Cc2ccccc2)CC1	1.57%
COc1cc(NC(=O)c2ccc(Br)cc2)c(OC)cc1NC(C)=O	4.11%
CCC(C)OC(=O)C(O)(c1ccc(Br)cc1)c1ccc(Br)cc1 (stereo not drawn)	1.33%
COc1ccc(NC(=O)c2cc(C(C)=O)oc2C)cc1	-2.2%
COc1ccc(OC)c(NC(=O)c2c(NC(=O)c3cccs3)sc3c2CCCC3)c1	-5.58%
Cc1ccc(-n2ncc3c(N4CCCCC4)ncnc32)cc1C	-1.79%
C=CCC(CS(=O)(=O)Cc1ccccc1)C(=O)NCC#N (stereo not drawn)	-1.83%
CC(C)(C)c1ccc(C(=O)NCCCn2ccnc2)cc1	4.85%
Cc1ccc(S(=O)(=O)c2nnn3c2nc(N2CCN(c4ccccn4)CC2)c2ccccc23)cc1	-2.41%
CCCCCC(=O)Nc1ccccc1N1CCOCC1	-1.21%
CSc1ccc(NC(=O)c2sc3nc(-c4cccs4)ccc3c2N)cc1	-0.68%
CCOC(=O)C1CCCN(CC2CCCCC2)C1 (stereo not drawn)	-9.14%
O=S(=O)(c1ccccc1)N1CCN(c2ncnc3sc4c(c23)CCCC4)CC1	4.11%
C=C(C)CN(CC)Cc1cc([N+](=O)[O-])ccc1O	-0.292%
Cc1ccc(S(=O)(=O)N(CC(=O)N2CCCCC2)c2ccc(Cl)cc2C)cc1	-0.496%
CC(=O)C1=C(C)OC(N)=C(C#N)C1c1cccc(O)c1 (stereo not drawn)	-2.64%
COCCNC(=O)c1nnc(-c2ccccc2)o1	2.5%
Fc1ccccc1CN1CCOCC1	-0.603%
COc1ccc(C(=O)NC2(Cc3cc(OC)ccc3OC)N=C3C=CC(C)=CN3C2=O)cc1 (stereo not drawn)	-0.637%
O=C(c1ccc(Cl)c([N+](=O)[O-])c1)N1CCCc2ccccc21	-2.6%
O=C(NCc1cccc(CNC(=O)c2cccnc2)c1)c1cccnc1	2.03%
Cc1ccc(C)n1-c1ccc(C(=O)N2CCN(c3ccc(N4CCOCC4)nn3)CC2)cc1	-1.7%

Structure (SMILES)	% Inhibition @ 10 uM
COc1ccc(C(NS(=O)(=O)c2ccc3ccccc3c2)c2ccccc2)cc1 (stereo not drawn)	2.7%
CC(=O)C1=C(Nc2ccc(C)cc2)CC(C)(O)C(C(C)=O)C1c1ccccc1 (stereo not drawn)	0.266%
Cc1ccc(-c2onc(C)c2C)cc1S(=O)(=O)N1CCC2(CC1)OCCO2	-6.86%
Cc1ccc(S(=O)(=O)N2CCN(C(=O)CN3CCCCC3)C2)cc1	-2.8%
Oc1ncnc2c1cnn2-c1cccc(Cl)c1	0.177%
O=C(CC1NC2CCCCC2NC1=O)Nc1ccccc1 (stereo not drawn)	2.13%
CC(C)(C)c1cc(N)n(-c2ccc(C(=O)O)cc2)n1	0.0539%
CCCc1cc(O)nc(SCC(=O)Nc2ccc(OCC)cc2)n1	-0.865%
COc1cc2c(cc1OC)CN(C(=O)C(F)(F)F)CC2	-2.75%
CCN(CC)c1nc2ccccc2c(O)c1C	4.67%
COc1ccccc1CNC(=O)CSc1ccc(-c2cccs2)nn1	3.8%
COc1ccc(CNC(=O)CN(C)S(=O)(=O)c2ccc3[nH]c(-c4ccccc4)nc3c2)cc1	-3.17%
CC(C)(C)c1ccc(C2CC(=O)NC3=C2C(=O)CCC3)cc1 (stereo not drawn)	6.82%
Cc1cc(C)n(-c2cc(C(F)(F)F)nc(-c3ccccc3)n2)n1	-1.48%
Cc1sc2ncn(CC(=O)N3CCCC3)c(=O)c2c1-c1ccc(Br)cc1	-5.3%
CCOC(=O)C1CCN(c2nc(C)cnc2C)CC1	2.16%
COC(=O)c1ccc(-c2ccco2)n1CC(=O)N1CCN(Cc2ccc3c(c2)OCO3)CC1	-0.495%
Cc1cc(O)n2c(C)nnc2n1	0.0289%
O=C(Nc1cc(-c2cccc(Cl)c2)no1)c1cc2c(s1)-c1ccccc1S(=O)(=O)C2	-2.45%
COC(=O)c1cc2ccccc2[nH]1	-1.99%
Cc1ccc(NC(=O)C23CC4CC(C2)CC(n2cnc(Br)n2)(C4)C3)cc1C	7.46%
OC(COc1ccc(F)cc1)CN1CCN(Cc2ccc(Cl)cc2)CC1 (stereo not drawn)	-5.06%
O=S(=O)(Nc1ccc(S(=O)(=O)N2CCCCC2)cc1)c1ccc(Br)s1	3.5%
Cc1cccc(-n2nnc(C(=O)NC3CCCc4ccccc43)c2N)c1 (stereo not drawn)	8.15%
O=C(Nc1ccon1)c1ccc(OC2CCCC2)cc1	-5.81%
COc1ccc2c(c1)c(=O)oc1cc(OCc3ccc(F)cc3)ccc12	1.84%

Structure (SMILES)	% Inhibition @ 10 uM
Cc1cc(NCc2ccc(F)cc2)n2cnnc2n1	-2.57%
O=S(=O)(c1ccc(F)cc1)N(Cc1ccccc1)Cc1ccccc1	2.22%
COc1ccc(Br)cc1CNCc1cccc(OC)c1OC	1.15%
Cc1ccc(OCc2nc(-c3ccc(C(=O)N4CCC5(CC4)OCCO5)cc3)oc2C)cc1	3.47%
CCc1ccc(CNC(=O)C2CCN(S(=O)(=O)N3CCC(C)CC3)CC2)cc1	-3.12%
O=CNCC(=O)NC1CCCCCC1	3.66%
Cc1ccc(OCC(=O)Nc2ccccc2C)cc1	6.37%
Cc1cccc(N2C(=O)CC(N3CCN(c4cccc(Cl)c4)CC3)C2=O)c1 (stereo not drawn)	6.74%
O=C(NCCNC1=NS(=O)(=O)c2ccccc21)c1ccc(S(=O)(=O)N2CCOCC2)cc1	-7%
COc1ccc(Oc2nc3c(c(=O)n(Cc4ccccc4)c(=O)n3C)n2C)cc1	1.97%
O=C(CCc1cn(Cc2ccccc2Cl)c2ccccc12)NCC1CCCO1 (stereo not drawn)	0.857%
CCOC(=O)c1[nH]cnc1C(=O)N1CCOCC1	-1.37%
O=C(O)COc1ccc(/C=C2/NC(=O)N(Cc3ccccc3F)C2=O)cc1	1.63%
Clc1ccccc1CN1C2=NCCCN2c2ccccc21	-3.74%
CCOc1ccc(C2c3c(oc4ccc(F)cc4c3=O)C(=O)N2c2nc(C)c(C(=O)OC)s2)cc1 (stereo not drawn)	-3.13%
CCCC1CCC(c2ccc(-c3noc(-c4ccc(OC(F)F)cc4)n3)cc2)CC1 (stereo not drawn)	-6.07%
CC(C)C[C@H](NC(=O)OCc1ccccc1)C(=O)N[C@H]1CCOC1(O)c1nc2ccccc2o1 (stereo partly drawn)	1.35%
CC(C)Cc1ccc(S(=O)(=O)Nc2noc3ccccc23)cc1	-2.85%
Cc1ccc(NC(=O)C2CCC(C)(C(=O)O)C2(C)C)cc1C (stereo not drawn)	-4.01%
Cc1[nH]c2ccc(C(=O)NCc3cccnc3)cc2c1C	-2.65%
COC(=O)c1c(NC(=O)c2cccc(Cn3nc(C)c(Cl)c3C)c2)sc2c1CCC2	0.413%
Cc1ccc(C(=O)N2N=C(c3ccccc3)CC2c2ccccc2)cc1 (stereo not drawn)	4.97%
CC(C)(C)n1cnc2cc(NC(=O)c3ccco3)ccc21	0.13%
CCc1c(CN(CC)Cc2ccccc2)csc1C	0.951%
CCC(=O)Nc1ccccc1C(=O)N1CCCC1	-7.9%
Cc1nc2c(c(C)c1CCC(=O)NCCC(C)C)c(=O)n(C)c(=O)n2C	-6.91%

Structure (SMILES)	% Inhibition @ 10 uM
CCCCOc1ccccc1C1NC(=O)NC(C)=C1C(=O)OCc1ccco1 (stereo not drawn)	-5.5%
CCOc1ccc(CN2CCNC(=O)C2CC(=O)O)cc1 (stereo not drawn)	2.31%
COc1ccc(-c2nc3c4cnn(-c5c(F)c(F)cc(F)c5F)c4ncn3n2)cc1	0.569%
Cc1ccc(C)c(S(=O)(=O)c2nnn3c2nc(N)c2sccc23)c1	-6.51%
Cc1ccccc1C(=O)Nc1ccc(S(=O)(=O)N2CCC(C)CC2)cc1	1.79%
CN(CC(=O)c1ccc2cc[nH]c2c1)Cc1ccccc1	3.96%
COc1cc(-c2cc(C(=O)O)c3c(-c4ccc(Cl)cc4)[nH]nc3n2)cc(OC)c1OC	-1.78%
CC(C)(C)NC(=O)c1cccc2c1OC(C)(C)C2	-1.09%
O=C(O)CCCC(=O)/N=C1\SC2CS(=O)(=O)CC2N1Cc1ccc(Cl)cc1 (stereo not drawn)	-2.92%
CCN1CCC(NC(C)CCCC(C)(C)O)CC1 (stereo not drawn)	-1.81%
CCC(C)NC(=O)c1cc(-c2ccc(C)o2)nc2ccccc12 (stereo not drawn)	1.1%
CCc1nnc(NS(=O)(=O)c2ccc(NC(=O)C34CC5CC(CC(C5)C3)C4)cc2)s1	-0.424%
O=C1CC(Cc2ccccc2)C(=O)N1CCCn1ccnc1 (stereo not drawn)	-1.52%
COc1cc(C)c(Cl)c(C)c1S(=O)(=O)N1CCOCC1	0.145%
N#Cc1sc2nc(C3CC3)cc(-c3ccc(F)cc3)c2c1N	-0.736%
CCOc1ccc(Cl)cc1S(=O)(=O)N1CCCCC1	1%
COc1ccc(Cn2c(CCC(=O)NCCC3=CCCCC3)nc3ncccc3c2=O)cc1	-4.24%
O=C1OC(c2ccc3c(c2)OCO3)=N/C1=C\c1ccccc1	-0.48%
Cc1nc2ccccc2n1/N=C/c1cccnc1	-3.21%
COc1ccc(-c2nc(C)c(C(C)=O)n2O)cc1OC	-3.96%
Cc1ccc(N2CC(C(=O)NCc3cccs3)CC2=O)cc1C (stereo not drawn)	3.56%
CCC1CCCCN1C(=O)c1cc2nc(-c3ccccc3)cc(C(F)(F)F)n2n1 (stereo not drawn)	-4.03%
COc1cccc(N(CC(=O)N2CCN(c3ccc(F)cc3)CC2)S(=O)(=O)c2ccccc2)c1	1.25%
CCOc1ccccc1N1C(=O)C2C3C=C(Cl)C(c4ccccc43)C2C1=O (stereo not drawn)	0.983%
